Here are results for one molecule from publication PMC11389776 (2024).

For this assay, the target named is T1, M2 muscarinic acetylcholine receptor (Homo sapiens, UniProt P08172).
T1 chain: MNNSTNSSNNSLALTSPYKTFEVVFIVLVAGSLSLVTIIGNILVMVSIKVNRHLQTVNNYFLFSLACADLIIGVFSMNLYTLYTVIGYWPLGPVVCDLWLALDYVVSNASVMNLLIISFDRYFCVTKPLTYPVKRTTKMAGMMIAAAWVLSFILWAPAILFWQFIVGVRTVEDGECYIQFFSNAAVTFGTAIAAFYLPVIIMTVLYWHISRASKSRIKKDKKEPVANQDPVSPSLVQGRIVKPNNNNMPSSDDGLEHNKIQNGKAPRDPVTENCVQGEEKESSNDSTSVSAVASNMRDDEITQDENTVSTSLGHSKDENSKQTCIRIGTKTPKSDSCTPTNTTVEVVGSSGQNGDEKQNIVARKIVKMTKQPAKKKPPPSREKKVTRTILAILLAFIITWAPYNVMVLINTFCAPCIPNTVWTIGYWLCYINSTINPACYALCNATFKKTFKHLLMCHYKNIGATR
Briefly: [3H]-NMS radioligand binding, allosteric ternary complex model.

B1: Gi1 heterotrimer (protein)
chain: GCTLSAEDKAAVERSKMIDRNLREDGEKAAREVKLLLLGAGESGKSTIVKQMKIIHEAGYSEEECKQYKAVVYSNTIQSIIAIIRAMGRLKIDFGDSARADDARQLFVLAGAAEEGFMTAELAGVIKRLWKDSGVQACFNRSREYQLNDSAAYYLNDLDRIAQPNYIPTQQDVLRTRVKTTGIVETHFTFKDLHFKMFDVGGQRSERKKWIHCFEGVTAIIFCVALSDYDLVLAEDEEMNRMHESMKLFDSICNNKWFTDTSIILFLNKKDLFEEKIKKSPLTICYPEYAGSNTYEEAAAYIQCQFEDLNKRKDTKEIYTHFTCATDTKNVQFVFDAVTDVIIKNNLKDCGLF
modifications: NMS-bound receptor
One may read the Kd as the constant that tells how readily two partners part at equilibrium. In turn, B1 gave an equilibrium dissociation constant (Kd) of approximately 42 nM.
